Paper PMC12136788
This is one part of the list.

T1: UNK ZnF1-3 (human, UniProt Q9C0B0 31-174)
T1 sequence: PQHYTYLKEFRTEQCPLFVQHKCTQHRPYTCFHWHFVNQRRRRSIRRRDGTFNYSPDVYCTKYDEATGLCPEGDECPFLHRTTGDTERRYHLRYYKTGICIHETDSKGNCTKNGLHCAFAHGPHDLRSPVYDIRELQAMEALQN

B1: chr11:29606707:29606708:+_ENSMUSG00000020458_ENSMUST00000102843|mus_mus|motif|central (ssRNA)
RNA: GGGAGUUCUACAGUCCGACGAUCCAUGGCUGACUCUCCUUUUGGGGAGCCAUUGAAAGAUGAUCCCAUUUCUGAGUAUUCGGAUACUGAAAACUCUGCUGACUCUCUAUUUACAAAUGGAUUUGUUGCCCUCUCUGGCAAUUCCAACAGAGGAUUGAGCAUCA
B2: chr13:31725248:31725249:-_ENSG00000120694_ENST00000320027|perfect_dup|FALSE|FALSE (ssRNA)
RNA: GGGAGUUCUACAGUCCGACGAUCUUUGGAUUUUGCAUCCAAUUUGUACUUGGUUUUAAAUUCAGCACAAAAAUGUUCUACUAGCUUCUCAUCAAAGUUCUUUCCUCCUAAGAAGGGAUCAAAAGCUGUGCCUAGAACCUUCAGCAACAGAGGAUUGAGCAUCA
B3: 96782924_96783505_4140_CDS_ENSG00000066739_ENST00000359933|human|control|control (ssRNA)
RNA: GGGAGUUCUACAGUCCGACGAUCAAAACCUUCAUAUUUUGUCACACAAAAUAAUGAACCACUAUUGAACUCUAACCAGAAUUCACCAUGCUUGUUUUCCAACAGAUCUCCAUUAUCUUGCUUCACAUCUGUGAACACUGCUAUCAACAGAGGAUUGAGCAUCA
B4: chr6:41757443:41757444:+_ENSG00000214736_ENST00000398881|hu_mus|hu_hu_hu_mus_False|58_98 (ssRNA)
RNA: GGGAGUUCUACAGUCCGACGAUCGAACCGUGCAGAGACCAGAGAAUAGCCGACACUGGGGGAUGGGGGGGCAGUGGGAAACUAGGCAGGCAAGGAGAGGGAGUCAACUUCAGCUGCCACUCAGGUAGGAUCUUGUGGUCACAGCAACAGAGGAUUGAGCAUCA
B5: 60832829_60832949_1000_3pUTR_ENSMUSG00000072437_ENSMUST00000088237|mouse|control|control (ssRNA)
RNA: GGGAGUUCUACAGUCCGACGAUCGGCUGUCCCUGUUGCUGCGCGGCGGCGGGCGGACGGUGGGCGGUGGCACUUUGGAGAGCGGGCAAUACUUGAUGGUAUGUGCGUUGUCGCCGCUGGCGCCGCACAGGGGGCACGUGUAGCCAACAGAGGAUUGAGCAUCA
B6: chr14:37946427:37946428:-_ENSMUSG00000041028_ENSMUST00000165649|mus_mus|FALSE|FALSE (ssRNA)
RNA: GGGAGUUCUACAGUCCGACGAUCUGAUGGUUCCAAGGCUGCCUCUUUCAGUUCUUGUCCAGUUUUCCCACGGUGAGUCCUAAUUCUUGUCUUGGUAGCAUAUUCCCUGCUGGGUGUUACGAGCCAUUGGUUCUUUGUGAUGGACAACAGAGGAUUGAGCAUCA
B7: 85877279_85877843_391_CDS_ENSMUSG00000054226_ENSMUST00000067137|mouse|control|control (ssRNA)
RNA: GGGAGUUCUACAGUCCGACGAUCGUUAGUUUCUGAAAUGCCAAAUUUCUUCAAGGCCUCUGAAAUAUUAUUAUUUGGGGAGAGGUUGAAGAUAAUUUCAGUAGACAGAGUUCUUGUCUUCAUUUUUCCCAGUCUGUGGAGAUGCAACAGAGGAUUGAGCAUCA
B8: chr18:24770415:24770416:+_ENSMUSG00000024271_ENSMUST00000025120|mus_mus|FALSE|FALSE (ssRNA)
RNA: GGGAGUUCUACAGUCCGACGAUCACAAACAGGUCCUUCAUGGCCUUGGAGACGGACUGAUUUUAAAACCUGAUUAUUCUCUAGUUCCCAAUGAAUCACCCGAUUGUCAGAUCCUCCAGACACCAGCUCAUUGGAAGGGGAGCCCAACAGAGGAUUGAGCAUCA
B9: chr12:39756943:39756944:-_ENSG00000139116_ENST00000544797|hu_mus|hu_hu_hu_mus_False|28_88 (ssRNA)
RNA: GGGAGUUCUACAGUCCGACGAUCGGUUUGGCUGUUACCCCCAAGGGAAUCCUGUAGGAGUCUUGUCAGCUUAGAGUCUCUGUAAGGGACAUGGGUGGCUCUCUUGCUCUUGUCUCCCAAGGCGCUGAUUACAUUCCCAAGAGCCAACAGAGGAUUGAGCAUCA
B10: chrX:20428832:20428833:+_ENSMUSG00000001127_ENSMUST00000120356|mus_mus|FALSE|FALSE (ssRNA)
RNA: GGGAGUUCUACAGUCCGACGAUCACAAUGCUGGUGGAACUUGUAGCCACAGGUCUGGCAGCGGAAUCCAUGGAACAGAAACUUAAGGCAGAAGUCACAGAAGGCCAGGCUGAAGAAUGUCUUCCGUACAAAAUUGUGCAUGGUCAACAGAGGAUUGAGCAUCA
B11: 120510811_120512209_1312_CDS_ENSG00000134250_ENST00000256646|human|control|control (ssRNA)
RNA: GGGAGUUCUACAGUCCGACGAUCGCAAGGAUUGCUGAUGCAUGCAUCAUCCAGAUGACACAGGAGACCUGCCUUCCCCUCUGGGCACAUGCAAGAGAAGGAGGCCACACGGUCGAUGCAGGUGGAGCCUGGAGUACAGGAGGCCAACAGAGGAUUGAGCAUCA
B12: chr7:75932113:75932114:+_ENSG00000106211_ENST00000248553|hu_hu|hu_hu_hu_mus_False|18_98 (ssRNA)
RNA: GGGAGUUCUACAGUCCGACGAUCCUGCGACCACUCAUCCGGCAGCCGGGGCACCCCGAAAGCUUGAUCGAAGAGGCGGCUGUGUGCAGGGUACCAGUCCCGGAAUGGUUCCCAGCUGCCCCGCAGGAGCAGCGAGAAGGGCACCAACAGAGGAUUGAGCAUCA
B13: chr14:63888807:63888808:-_ENSG00000154001_ENST00000337537|hu_hu|motif|central (ssRNA)
RNA: GGGAGUUCUACAGUCCGACGAUCUUCAUUGCUGUCACUAGGAGGGAGAGUUCUGAAUAUAUUGCAAGAUACCAUUCGGACGGCUUCAGGGUAAGUCUGCUCUGUCAAACAGCCUCUGCUUAUUGUAAUGUAGUCCACCAGUUCCAACAGAGGAUUGAGCAUCA
B14: chr8:95500983:95500984:-_ENSG00000164944_ENST00000437199|hu_mus|FALSE|FALSE (ssRNA)
RNA: GGGAGUUCUACAGUCCGACGAUCAGAACACAUCUAUCGAGUAAAGGACCGUACAUGACGGCCUCUACCACUGCCUCCACUAACAAACUUUCCUCUCGAGCCUCCACUGCCGCUAUUUGUACUAGCCCAGGACGGUCCCAGGCCCAACAGAGGAUUGAGCAUCA

Each binder was assayed against T1, UNK ZnF1-3 (assay: nsRBNS (natural sequence RNA bind-n-seq); RBNS binding buffer (assumed for nsRBNS): 25 mM Tris pH 7.5, 150 mM KCl, 3 mM MgCl2, 0.01% Triton X-100, 500 ug/ml BSA, 20 U/ml SUPERase-In, 4 C; UNK is unkempt and MSI1 is Musashi-1; names of the RNAs are library labels; protein concentration not given here; high values mean tight binding).
B1 showed a binding signal of 0.789 enrichment R. With B2 the binding signal was 1.41 enrichment R. Binder B3 has a binding signal of 0.626 enrichment R. Binder B4 has a binding signal of 2.09 enrichment R. For B5, the binding signal was 0.814 enrichment R. For B6, the binding signal was 0.445 enrichment R. For B7, the binding signal was 0.515 enrichment R. B8 showed a binding signal of 1.19 enrichment R. B9 showed a binding signal of 0.872 enrichment R. Work on B10 yielded a binding signal of 1.28 enrichment R. In the case of B11, the binding signal is reported as 1.56 enrichment R. Binder B12 has a binding signal of 0.936 enrichment R. In the case of B13, the binding signal is reported as 0.955 enrichment R. B14 showed a binding signal of 0.997 enrichment R.
